We go through 19 molecules from the supplement of paper PMC10369915.

The list shows a part of the results. No stated cut-off is given here; in the data, active = 3.2 or more and inactive = the rest. Only a few entries rise above the background.

The labels stand for the following.
B1: PIK3R1_Y463_YF (peptide)
chain: EKSREYDRLFE
B2: PKHD1_Y452_E457D_YF (peptide)
chain: LGGAMYFLEAD
B3: PIK3CA_Y1021_Y1021N (peptide)
chain: FDDIANIRKTL
B4: PIK3CA_Y1021_R1023Q (peptide)
chain: FDDIAYIQKTL
B5: PKP2_Y108_K112N (peptide)
chain: PVPKTYDMLNA
B6: PLA2G6_Y541 (peptide)
chain: YMRGMYFRMKD
B7: PKP2_Y166_S169G_YF (peptide)
chain: FTHSDYQFGQR
B8: PGM1_Y66_K68M (peptide)
chain: GDGRFYMMEAI
B9: PLA2G2D_Y82 (peptide)
chain: QGCSIYKDYYR
B10: PIK3R1_Y467_D464H_YF (peptide)
chain: EFHRLYEEFTR
B11: PKLR_Y564_R569Q (peptide)
chain: RPGSGYTNIMQ
B12: PIK3CA_Y1021 (peptide)
chain: FDDIAYIRKTL
B13: PKP2_Y659 (peptide)
chain: KVKEQYQDVPM
B14: PHACTR1_Y525_R521C (peptide)
chain: ICFSDYVEVAD
B15: PLA2G2D_Y126_R121L (peptide)
chain: LNLDTYQKRLR
B16: PIK3CA_Y1021_Y1021C (peptide)
chain: FDDIACIRKTL
B17: PLAUR_Y217 (peptide)
chain: NGRQCYSCKGN
B18: PIK3CA_Y1038_A1035V (peptide)
chain: QEVLEYFMKQM
B19: PKP1_Y160_C161Y (peptide)
chain: SEPDLYYDPRG
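Further: displayed peptides selected on beads carrying the immobilized SH2 domain, with library peptides lacking any tyrosine serving as negative controls.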

In one assay the target is SHP2 C-SH2 domain E139D. Kind of assay: enrichment score (SH2-bound / input frequency) (ratio); bacterial display of known human phosphotyrosine sites (pTyr-Var adds point mutants) read by sequencing; higher = stronger binding; tyrosines were phosphorylated by kinases first. The conditions noted are these: peptide library: pTyr-Var.
As for B1, the enrichment score was inactive: 0.668.

Take B2: the enrichment score was inactive: 1.22.

As for B3, the enrichment score was inactive: 0.662.

On to B4, for which the enrichment score is inactive: 0.819.

Turning to B5, the enrichment score was inactive: 0.542.

For the molecule B6, the enrichment score is inactive: 1.4.

As to B7, the enrichment score is inactive: 0.662.

As to B8, the enrichment score was inactive: 1.09.

For B9, the enrichment score was inactive: 1.15.

As for B10, the enrichment score is inactive: 1.12.

Regarding B11, the enrichment score is inactive: 0.753.

Turning to B12, the enrichment score was inactive: 0.868.

Consider B13, for which the enrichment score is inactive: 0.533.

For the molecule B14, the enrichment score is inactive: 1.16.

With B15, the enrichment score is inactive: 0.652.

Take B16: the enrichment score was inactive: 1.16.

For B17, the enrichment score was inactive: 1.61.

Take B18: the enrichment score was inactive: 1.43.

B19: the enrichment score is inactive: 0.672.

The next assay has as its target SHP2 C-SH2 domain wild-type. The description is as above. Particulars: peptide library: pTyr-Var.
In the case of B1, the enrichment score is inactive: 0.654.

Consider B2, for which the enrichment score was inactive: 1.1.

B3: the enrichment score was inactive: 0.764.

B4: the enrichment score is inactive: 0.678.

B5: the enrichment score is inactive: 0.843.

Regarding B6, the enrichment score was inactive: 0.992.

On to B7, for which the enrichment score is inactive: 0.729.

For the molecule B8, the enrichment score is inactive: 0.803.

On to B9, for which the enrichment score is inactive: 0.822.

Consider B10, for which the enrichment score is inactive: 1.31.

For the molecule B11, the enrichment score was inactive: 1.13.

Regarding B12, the enrichment score is inactive: 0.765.

With B13, the enrichment score was inactive: 0.579.

Consider B14, for which the enrichment score is inactive: 1.38.

Regarding B15, the enrichment score was inactive: 0.598.

In the case of B16, the enrichment score was inactive: 1.

Regarding B17, the enrichment score was inactive: 1.35.

Regarding B18, the enrichment score is inactive: 1.65.

As for B19, the enrichment score is inactive: 0.65.

A further assay addresses SHP2 N-SH2 domain L43F. The assay is described as above. Particulars: peptide library: pTyr-Var.
Regarding B1, the enrichment score is inactive: 0.547.

With B2, the enrichment score is inactive: 0.994.

In the case of B3, the enrichment score was inactive: 0.756.

As to B4, the enrichment score is inactive: 0.832.

For B5, the enrichment score was inactive: 0.985.

Consider B6, for which the enrichment score was inactive: 0.961.

As to B7, the enrichment score is inactive: 0.729.

For B8, the enrichment score is inactive: 0.957.

Turning to B9, the enrichment score is inactive: 0.847.

As for B10, the enrichment score is inactive: 0.962.

Regarding B11, the enrichment score is inactive: 0.713.

Take B12: the enrichment score was inactive: 0.66.

As for B13, the enrichment score was inactive: 0.566.

For B14, the enrichment score was inactive: 1.01.

As for B15, the enrichment score was inactive: 0.483.

Turning to B16, the enrichment score was inactive: 0.837.

Regarding B17, the enrichment score is inactive: 1.48.

For the molecule B18, the enrichment score was inactive: 1.32.

For the molecule B19, the enrichment score was inactive: 0.695.

Another assay addresses SHP2 N-SH2 domain T42A. The description is as above. Particulars: peptide library: pTyr-Var.
As to B1, the enrichment score is inactive: 0.631.

With B2, the enrichment score is inactive: 1.21.

On to B3, for which the enrichment score was inactive: 0.57.

For B4, the enrichment score is inactive: 0.656.

As to B5, the enrichment score was inactive: 0.713.

In the case of B6, the enrichment score was inactive: 1.

As to B7, the enrichment score was inactive: 0.569.

For B8, the enrichment score was inactive: 0.734.

With B9, the enrichment score was inactive: 0.874.

Take B10: the enrichment score is inactive: 0.92.

As to B11, the enrichment score was inactive: 0.714.

As to B12, the enrichment score is inactive: 0.675.

As to B13, the enrichment score is inactive: 0.529.

Regarding B14, the enrichment score is inactive: 1.16.

B15: the enrichment score is inactive: 0.422.

Regarding B16, the enrichment score was inactive: 0.883.

As for B17, the enrichment score was inactive: 1.39.

Take B18: the enrichment score was inactive: 1.24.

In the case of B19, the enrichment score was inactive: 0.429.

The next assay deals with SHP2 N-SH2 domain T52S. The assay is described as above. Particulars: peptide library: pTyr-Var.
Take B1: the enrichment score was inactive: 0.61.

As to B2, the enrichment score was inactive: 1.11.

B3: the enrichment score was inactive: 0.796.

For the molecule B4, the enrichment score was inactive: 0.703.

Regarding B5, the enrichment score is inactive: 1.01.

Turning to B6, the enrichment score was inactive: 1.27.

As for B7, the enrichment score is inactive: 0.57.

Consider B8, for which the enrichment score was inactive: 0.777.

For the molecule B9, the enrichment score is inactive: 1.02.

On to B10, for which the enrichment score was inactive: 1.05.

Consider B11, for which the enrichment score is inactive: 0.705.

As to B12, the enrichment score was inactive: 0.781.

As to B13, the enrichment score is inactive: 0.652.

For B14, the enrichment score was inactive: 1.18.

In the case of B15, the enrichment score is inactive: 0.496.

For the molecule B16, the enrichment score is inactive: 0.926.

Regarding B17, the enrichment score was inactive: 1.58.

As to B18, the enrichment score is inactive: 1.15.

On to B19, for which the enrichment score was inactive: 0.673.

Another assay addresses SHP2 N-SH2 domain wild-type. The assay is described as above. The conditions noted are these: peptide library: pTyr-Var.
B1: the enrichment score is inactive: 0.556.

Regarding B2, the enrichment score was inactive: 0.952.

For B3, the enrichment score is inactive: 0.683.

In the case of B4, the enrichment score was inactive: 0.726.

Take B5: the enrichment score was inactive: 0.738.

Regarding B6, the enrichment score is inactive: 1.02.

For B7, the enrichment score was inactive: 0.858.

Regarding B8, the enrichment score is inactive: 0.846.

As to B9, the enrichment score is inactive: 1.26.

B10: the enrichment score is inactive: 1.05.

Take B11: the enrichment score is inactive: 0.705.

As to B12, the enrichment score was inactive: 0.753.

In the case of B13, the enrichment score is inactive: 0.676.

As for B14, the enrichment score is inactive: 1.64.

As to B15, the enrichment score was inactive: 0.588.

In the case of B16, the enrichment score is inactive: 1.01.

As for B17, the enrichment score is inactive: 1.55.

For the molecule B18, the enrichment score is inactive: 1.28.

As for B19, the enrichment score was inactive: 0.693.
